Results: patent publication US20100137158A1 (WISCONSIN ALUMNI RESEARCH FOUNDATION, published 2010)

Columns and labels:
streptavidin = molecular target: T1, streptavidin (UniProt P22629 part only, limits assumed); assay: yeast surface display
T1 construct: On polystyrene beads (Spherotech) in the assays with soluble 1.3 GFAb; also called streptavidin alone; streptavidin-coated polystyrene beads

[1] = molecular target: streptavidin-phycoerythrin conjugate (UniProt P22629 part only); assay: yeast surface display titration, flow cytometry; triplicate titrations, KD ± SD
[2] = molecular target: T2, glyceraldehyde-3-phosphate dehydrogenase (GAPDH) from human erythrocytes (human, UniProt P04406 2-335, biotinylated using Sulfo-NHS-LC-biotin (for the titrations); unmodified in the check of paragraph 109 and in HEK-293 cells); assay: yeast surface display titration, flow cytometry; triplicate; estimate from low concentration data (hook effect above 100 nM GAPDH)
T2 construct: The same entry is used for the endogenous GAPDH stained in fixed HEK-293 cells

[3] = molecular target: T2, glyceraldehyde-3-phosphate …; assay: yeast surface display titration, flow cytometry

T2 sequence (P04406 2-335 limits assumed): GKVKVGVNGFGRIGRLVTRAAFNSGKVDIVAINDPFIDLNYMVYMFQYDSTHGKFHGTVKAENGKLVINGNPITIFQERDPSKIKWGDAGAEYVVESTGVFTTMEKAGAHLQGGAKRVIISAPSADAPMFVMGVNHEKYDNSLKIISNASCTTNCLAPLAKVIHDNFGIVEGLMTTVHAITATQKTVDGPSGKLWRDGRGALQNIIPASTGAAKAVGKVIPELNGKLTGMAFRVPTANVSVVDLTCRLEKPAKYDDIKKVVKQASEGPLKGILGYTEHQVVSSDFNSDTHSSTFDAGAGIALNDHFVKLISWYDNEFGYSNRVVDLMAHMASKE
Sequence of streptavidin (P22629 37-163 limits assumed): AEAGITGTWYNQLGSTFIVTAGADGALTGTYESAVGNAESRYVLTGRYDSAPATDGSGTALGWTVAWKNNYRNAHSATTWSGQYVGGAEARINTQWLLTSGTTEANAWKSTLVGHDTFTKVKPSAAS

B1: 1.3 GFAb (designed binder)
chain: MSKGEELFTGVVPILVELNGDVNGHKFSVSGEGEGDATHGKLTLKFICTTGKLPVPWPTLVTTLGYGVQCFARYPDHMKQHDFFKSTMPEGYVQERTIFFKDLKAISRSFFSTTSDGTYKTRAEVKFEGGTLVNRIELKGIDFKEDGNILGHKLEYNYNSHNVYIMADKQKNGIKANFKIRHNIKSRIRNLKYTNTRDGSVQLADHYQQNTPIGDGPVLLPDNHYLSTQSKLSKDPNEKRDHMVLVEFVTAAGITHGMDELYK
notes: Scaffold 20-5-8
binding result (streptavidin): binds
Kd [1]: 70 nM

B2: G6 GFAb (designed binder)
chain: MSKGEELFTGVVPILVELNGDVNGHKFSVSGEGEGDATHGKLTLKFICTTGKLPVPWPTLVTTLGYGVQCFARYPDHMKQHDFFKSTMPEGYVQERTIFFKDLKRVSRFLLTTTSDGTYKTRAEVKFEGGTLVNRIELKGIDFKEDGNILGHKLEYNYNSHNVYIMADKQKNGIKANFKIRHNIKSRKSRIISSQTRDGSVQLADHYQQNTPIGDGPVLLPDNHYLSTQSKLSKDPNEKRDHMVLVEFVTAAGITHGMDELYK
notes: Scaffold 20-5-8
Kd [2]: 18 nM

B3: G7 GFAb (designed binder)
chain: MSKGEELFTGVVPILVELNGDVNGHKFSVSGEGEGDATHGKLTLKFICTTGKLPVPWPTLVTTLGYGVQCFARYPDHMKQHDFFKSTMPEGYVQERTIFFKDLKNVIYPFLYATSDGTYKTRAEVKFEGGTLVNRIELKGIDFKEDGNILGHKLEYNYNSHNVYIMADKQKNGIKANFKIRHNIKSRRVTKTKHKTRDGSVQLADHYQQNTPIGDGPVLLPDNHYLSTQSKLSKDPNEKRDHMVLVEFVTAAGITHGMDELYK
notes: Scaffold 20-5-8
Kd [3]: > 500 nM

B4: G4 GFAb (designed binder)
chain: MSKGEELFTGVVPILVELNGDVNGHKFSVSGEGEGDATHGKLTLKFICTTGKLPVPWPTLVTTLGYGVQCFARYPDHMKQHDFFKSTMPEGYVQERTIFFKDLKRGVSKSFLLTSDGTYKTRAEVKFEGGTLVNRIELKGIDFKEDGNILGHKLEYNYNSHNVYIMADKQKNGIKANFKIRHNIKSRQGITKGYKTRDGSVQLADHYQQNTPIGDGPVLLPDNHYLSTQSKLSKDPNEKRDHMVLVEFVTAAGITHGMDELYK
notes: Scaffold 20-5-8
Kd [3]: > 500 nM

B5: G8 GFAb (designed binder)
chain: MSKGEELFTGVVPILVELNGDVNGHKFSVSGEGEGDATHGKLTLKFICTTGKLPVPWPTLVTTLGYGVQCFARYPDHMKQHDFFKSTMPEGYVQERTIFFKDLKSHCLFRKCYTSDGTYKTRAEVKFEGGTLVNRIELKGIDFKEDGNILGHKLEYNYNSHNVYIMADKQKNGIKANFKIRHNIKSRARSIRMKVTRDGSVQLADHYQQNTPIGDGPVLLPDNHYLSTQSKLSKDPNEKRDHMVLVEFVTAAGITHGMDELYK
notes: Scaffold 20-5-8
Kd [3]: > 500 nM
